The whole screen tested about 360,000 compounds, of which about 25,000 (6.9%) were called active. The shares of active, inactive and inconclusive entries below differ from those in the screen. Calls come from the whole dose curve; as a rule, active = well fitted inhibition curve with a large enough effect; inconclusive = small, poorly fitted or top-dose-only effect; inactive = flat fitted curve, though single readings scatter. A potency beside an inconclusive call is a rough fit, not a confirmed value.
What follows are compounds tested against Luciferin 4-monooxygenase (Photinus pyralis) (UniProt P08659) (assay: qHTS profiling assay for firefly luciferase inhibitor/activator using purifed enzyme and Km concentrations of substrates (counterscreen for miR-21 project)). Settings: purified FLuc, luminescence inhibition; activity change, negative = inhibition: at 57.5 µM (top of the series).
Chain of UniProt P08659 (P08659 whole entry, looked up): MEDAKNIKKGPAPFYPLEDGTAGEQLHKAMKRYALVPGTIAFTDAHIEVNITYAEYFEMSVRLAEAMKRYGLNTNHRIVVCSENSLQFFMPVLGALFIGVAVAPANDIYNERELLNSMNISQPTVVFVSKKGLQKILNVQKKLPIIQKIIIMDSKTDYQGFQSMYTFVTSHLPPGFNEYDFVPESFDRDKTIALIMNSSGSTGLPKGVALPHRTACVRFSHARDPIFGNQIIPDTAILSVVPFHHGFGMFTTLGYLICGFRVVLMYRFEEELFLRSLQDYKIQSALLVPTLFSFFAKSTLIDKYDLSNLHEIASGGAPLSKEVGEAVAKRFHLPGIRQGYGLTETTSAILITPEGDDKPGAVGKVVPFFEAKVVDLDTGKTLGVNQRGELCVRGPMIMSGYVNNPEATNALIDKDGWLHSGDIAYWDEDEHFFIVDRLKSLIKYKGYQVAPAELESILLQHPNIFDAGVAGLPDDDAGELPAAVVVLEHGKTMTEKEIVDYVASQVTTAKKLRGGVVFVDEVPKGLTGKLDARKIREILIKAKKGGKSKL
Method in brief: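 Biochemical qHTS of compounds, final roughly 60 µM downward over six points, against 10 nM purified firefly luciferase using Km concentrations of substrates (10 uM D-luciferin, 10 uM ATP) in Tris acetate pH 7.5 buffer; luminescence output.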
`COc1ccc(NC(=O)Cn2c(SCc3ccc(F)cc3)nc3cccnc32)c(OC)c1` was tested, and the Potency was inconclusive: 5.36 µM [inhibitor, partial curve]. In the case of `CCCn1cc(CN2CCCC(C(=O)c3ccc4c(c3)OCO4)C2)c(C)n1` (stereo unspecified), the “activity change, negative = inhibition” value is reported as inactive: -1.68%. For `CCN1CCN(S(=O)(=O)c2cccc([N+](=O)[O-])c2)CC1`, the “activity change, negative = inhibition” value was inactive: -1.53%. For `CC1CCn2c(nc3cc(C(=O)NCCc4ccccc4)ccc32)C1` (stereo unspecified), the Potency was active: 9.53 µM. With `O=C(Cc1ccccc1)Nc1ncccn1` the “activity change, negative = inhibition” value was inactive: 2.05%. With `O=C(OCC(=O)c1cccs1)c1ccc(NC(=O)c2ccco2)cc1` the Potency was inconclusive: 37.9 µM [inhibitor, partial curve, poor fit]. For `CCCC(C)c1nnc(NC(=O)C2CCCO2)s1` (stereo unspecified), the “activity change, negative = inhibition” value was inactive: -6.73%. `Nc1c(C(=O)c2ccco2)oc2ccccc12` was tested, and the Potency was inconclusive: 23.9 µM [inhibitor, single point]. For `COc1ccccc1OCCSc1nc2ccccc2n1CC(O)CO` (stereo unspecified), the Potency was inconclusive: 23.9 µM [inhibitor, single point]. With `O=C(Cn1cnc2c(NC(=O)OCc3ccccc3)ncnc21)NCc1ccccn1` the Potency was inconclusive: 9.53 µM [inhibitor, partial curve, poor fit]. With `O=C(c1ccccc1)n1ccc2ccccc21` the Potency was inconclusive: 21.3 µM [inhibitor, single point]. In the case of `O=C(Cc1ccccc1[N+](=O)[O-])OCC(=O)c1c[nH]c2ccccc12`, the Potency is reported as active: 10.7 µM. For `CCOc1ccc(NC(=O)c2cccnc2SC)cc1`, the Potency was inconclusive: 26.9 µM [inhibitor, partial curve, poor fit]. With `CCOc1ccccc1NC(=O)COn1nnc2ccccc21` the Potency was inconclusive: 30.1 µM [inhibitor, single point]. For `Cc1ccc(-n2cccc2/C=C2\C(=N)N3N=C(C(C)C)SC3=NC2=O)cc1`, the Potency was inconclusive: 21.3 µM [inhibitor, single point]. In the case of `O=C(Nc1ccc(N2CCOCC2)cc1)c1ccncc1`, the Potency is reported as inconclusive: 37.9 µM [inhibitor, partial curve, poor fit]. `Cc1ccc(-c2cn3cccc(C)c3n2)cc1` was tested, and the Potency was active: 1.07 µM. In the case of `Cc1ccc(C(=O)N/N=C/C2=Cc3ccccc3OC2C)cc1` (stereo unspecified), the Potency is reported as active: 3.01 µM. In the case of `COc1cccc(CNC(=O)Cc2ccc(NC(=O)N3CCCCc4ccccc43)cc2)c1OC`, the Potency is reported as inconclusive: 10.7 µM [inhibitor, partial curve, poor fit]. `COc1cc(/C=C/C(=O)N2CCOCC2)ccc1OCc1ccccc1` was tested, and the Potency was inconclusive: 37.9 µM [inhibitor, partial curve, poor fit]. In the case of `COc1cccc(C(=O)NC(=S)Nc2ccc(N3CCCC3)cc2)c1`, the Potency is reported as inconclusive: 16.9 µM [inhibitor, partial curve, poor fit]. With `Cc1ccc(C)c(-n2c(CCC(=O)O)ccc2-c2ccc(Cl)cc2)c1` the Potency was inconclusive: 10.7 µM [inhibitor, partial curve]. `Cc1nc(-c2cccnc2)sc1C(=O)Nc1ccc(C(F)(F)F)cc1` was tested, and the Potency was inconclusive: 21.3 µM [inhibitor, partial curve, poor fit]. In the case of `Cc1nc(C)c(-c2ccc(SCC(=O)Nc3ccc(C)c(F)c3)nn2)s1`, the Potency is reported as inconclusive: 8.49 µM [inhibitor, partial curve, poor fit]. `N/C(=N\OC(=O)c1ccncc1)c1cccc([N+](=O)[O-])c1` was tested, and the Potency was inconclusive: 19 µM [inhibitor, partial curve, poor fit]. `Cc1ccc(C(C)C)c(OCC(=O)Nc2ccc(C(=O)OC3CCCCC3)cc2)c1` was tested, and the “activity change, negative = inhibition” value was inactive: 5.92%. For `Cc1ccc(C(=O)Nc2sc3c(c2C#N)CCCCC3)cc1C`, the Potency was inconclusive: 2.69 µM [inhibitor, full curve]. In the case of `COc1c2ccoc2c(OCC=C(C)C)c2oc(=O)ccc12`, the Potency is reported as inconclusive: 26.9 µM [inhibitor, partial curve, poor fit]. With `Clc1cc(Cl)cc(Nc2ncnc(-n3cccc3)n2)c1` the “activity change, negative = inhibition” value was inactive: -3.81%. `O=C(COC(=O)c1ccc(-c2nnc(-c3ccccc3)o2)cc1)c1ccccc1` was tested, and the “activity change, negative = inhibition” value was inactive: 4.41%. In the case of `CC1(C)C=Cc2c(ccc3c2OC[C@H](c2ccc(O)cc2O)C3)O1`, the Potency is reported as inconclusive: 14.1 µM [inhibitor, partial curve, poor fit]. `Cn1c(=O)c2c(-c3ccccc3Cl)n(-c3cc(Cl)ccc3O)cc2n(C)c1=O` was tested, and the Potency was inconclusive: 37.9 µM [inhibitor, partial curve, poor fit]. `CC1Cc2ccccc2N1C(=S)NC(=O)c1ccco1` (stereo unspecified) was tested, and the Potency was inconclusive: 19 µM [inhibitor, partial curve, poor fit]. `N#C/C(=C(/O)c1ccccc1F)c1nc2cc(C(F)(F)F)ccc2s1` was tested, and the Potency was inconclusive: 37.9 µM [inhibitor, single point]. With `Cc1nc(-c2ccccc2)sc1C(=O)CSc1ccccc1` the Potency was inconclusive: 37.9 µM [inhibitor, partial curve, poor fit]. With `Cc1ccc(NC(=O)c2ccccc2Br)cc1S(=O)(=O)N(C)C` the Potency was inconclusive: 21.3 µM [inhibitor, partial curve, poor fit]. With `O=C(NCc1cccnc1)c1cn(-c2ccccc2)nc1-c1ccccc1` the Potency was active: 21.3 µM. `C/C(=N\NC(=O)c1ccc(CN2CCOCC2)cc1)c1ccc(NC(=O)c2ccccc2)cc1` was tested, and the Potency was inconclusive: 21.3 µM [inhibitor, partial curve, poor fit]. For `Cn1c2ccccc2c(=O)c2cc(C#Cc3cccc(N)c3)ccc21`, the Potency was active: 4.78 µM. For `CCC(C)(C)C(=O)Nc1nnc(CCc2ccccc2)s1`, the Potency was inconclusive: 21.3 µM [inhibitor, partial curve]. With `CC(C)c1ccc(NC(=S)N2CCN(Cc3ccccc3)CC2)cc1` the Potency was inconclusive: 37.9 µM [inhibitor, single point]. `CC(=O)c1ccc(NC(=O)c2ccc(CNc3c(N4CCCC4)c(=O)c3=O)cc2)cc1` was tested, and the Potency was inconclusive: 13.5 µM [inhibitor, partial curve]. `Cc1csc2nc(COc3ccccc3NC(=O)c3ccco3)cc(=O)n12` was tested, and the “activity change, negative = inhibition” value was inactive: 2.16%. For `Cc1cc(C(=O)CN2C(=O)C(=O)N(CC(C)C)C2=O)c(C)n1C1CC1`, the Potency was inconclusive: 37.9 µM [inhibitor, partial curve, poor fit]. For `CC(C)[C@H](NC(=O)c1ccccc1)C(=O)OCC(=O)c1ccccc1F`, the Potency was inconclusive: 19 µM [inhibitor, partial curve]. For `Cc1ccnc(NC(=O)c2ccc(Br)s2)c1`, the Potency was active: 2.69 µM. `O=C(/C=C/c1cccc(F)c1)N1CCc2ccccc21` was tested, and the Potency was active: 0.849 µM. `Cc1csc(C(C#N)C(=O)c2cc3ccccc3o2)n1` (stereo unspecified) was tested, and the Potency was active: 1.35 µM. With `CC(=O)Nc1ccc(C2Sc3ccccc3NC3=C2C(=O)c2ccccc23)cc1` (stereo unspecified) the Potency was inconclusive: 15.1 µM [inhibitor, partial curve]. For `O=C1CC(N2CCc3ccccc32)C(=O)N1c1ccccc1` (stereo unspecified), the Potency was inconclusive: 21.3 µM [inhibitor, single point]. For `O=C(NCc1cccnc1)c1cccc(-c2cc3ccccc3oc2=O)c1`, the Potency was inconclusive: 26.9 µM [inhibitor, partial curve, poor fit]. With `COc1cccc(NC(=O)CSc2ncc(S(=O)(=O)c3ccc(C)c(C)c3)c(=O)[nH]2)c1` the Potency was inconclusive: 10.7 µM [inhibitor, partial curve]. With `C[n+]1cccc(O)c1SCc1ccccc1` the Potency was inconclusive: 30.1 µM [inhibitor, partial curve, poor fit]. In the case of `COc1ccccc1CNC(=O)c1ccc(N2CCCC2)c(NC(=O)NCCC(C)C)c1`, the “activity change, negative = inhibition” value is reported as inactive: -2.35%. For `Cn1c(=O)c2c(O)c([N+](=O)[O-])c(=O)n(C)c2n(C)c1=O`, the “activity change, negative = inhibition” value was inactive: -1.27%. `O=C(NCCN1C(=O)S/C(=C\c2cccnc2)C1=O)C1=NN(c2ccccc2)C(=O)CC1` was tested, and the “activity change, negative = inhibition” value was inactive: 0.535%. With `O=C(CC1SC(=O)NC1=O)Oc1ccc(/C=N/NC(=O)c2ccccc2O)cc1` (stereo unspecified) the Potency was active: 16.9 µM. For `CCOc1cccc2cc(-c3nc4ccc(C(=O)O)cc4[nH]3)c(=O)oc12`, the Potency was active: 0.379 µM. For `CCOC(=O)c1ccc(N2C(=O)CC(C3CCCO3)C2=O)cc1` (stereo unspecified), the “activity change, negative = inhibition” value was inactive: -1.77%. For `COc1ccc(NC(=O)C2Cc3cccc(OC)c3O/C2=N\O)cc1` (stereo unspecified), the Potency was inconclusive: 30.1 µM [inhibitor, partial curve, poor fit]. With `COc1ccc(-c2cc(C(=O)Nc3cccnc3)c3ccccc3n2)cc1OC` the Potency was active: 10.7 µM. In the case of `CCCNc1nc(C)nc2c1cnn2CCc1ccccc1`, the “activity change, negative = inhibition” value is reported as inactive: -19%. In the case of `OC(C#Cc1ccccn1)c1cccs1` (stereo unspecified), the Potency is reported as inconclusive: 30.1 µM [inhibitor, single point]. With `O=C(Nc1ccccc1O)c1c(O)c2c([nH]c1=O)CCCC2` the Potency was active: 7.57 µM. With `Cc1cccc(NC(=O)CN(C)C(=O)c2ccc3ccccc3n2)c1C` the Potency was inconclusive: 26.9 µM [inhibitor, single point]. With `O=[N+]([O-])c1ccc(O)c(C(C#Cc2ccccc2)N2CCOCC2)c1` (stereo unspecified) the Potency was inconclusive: 37.9 µM [inhibitor, partial curve, poor fit]. In the case of `Cc1ccccc1S(=O)(=O)Cc1ccc(C(=O)NC2CCCCC2)o1`, the Potency is reported as “inactive”. With `Cc1ccc(SCc2nc(-c3ccccc3)no2)cc1` the activity change, negative = inhibition was inactive: 0.386% [at 2.3 µM]. For `COc1ccc(NC(=O)c2oc3ccccc3c2NC(=O)c2cc3ccccc3o2)cc1`, the Potency was inconclusive: 3.01 µM [inhibitor, full curve]. `CCc1ccc(NS(=O)(=O)c2ccc3[nH]cc(C(=O)NCC4CCCO4)c(=O)c3c2)cc1` (stereo unspecified) was tested, and the Potency was inconclusive: 10.7 µM [inhibitor, partial curve]. For `Cc1ccc(OC(=O)c2cc(-c3ccc4c(c3)OCCO4)on2)cc1C`, the Potency was inconclusive: 6.75 µM [inhibitor, partial curve].
Note: nearly all actives have a fitted effect of over 55% in size.
Potency is the fitted concentration of half-maximal effect; tags give direction and shape of the fitted curve.
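Throughout, for activity change, negative = inhibition: plate controls were vehicle for no effect and reference inhibitor for full effect.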
